Here are results for 32 molecules from the supplement of paper PMC12462457.

Structures can show the parent of a compound that is named as a salt. ± gives the standard deviation of the averaged measurements. Some of the results follow.

The assay concerns OVCAR8. Description: cell count relative to DMSO vehicle (fold change); OVCAR8 is a high-grade serous ovarian cancer line and CX-5461 an RNA polymerase I inhibitor; higher = more surviving senescent cells (less killing). Conditions: senescence inducer: CX-5461 3 µM 48 h, then 6 d recovery (CX senescent), exposure time 24 h.

As for `CN(CCO)CC[C@H](CSc1ccccc1)Nc1ccc(S(=O)(=O)NC(=O)c2ccc(N3CCC([C@@H](O)c4ccccc4-c4ccc(Cl)cc4)CC3)cc2)cc1S(=O)(=O)C(F)(F)F`, the cell count is, setting by setting: (compound dose 1 µM) 0.688 ± 0.091; (compound dose 5 µM) 0.251.

In turn, `C=C(C)[C@H](CC=C(C)C)Cc1c(O)cc(O)c2c1O[C@H](c1ccc(O)cc1O)CC2=O` [Sophoraflavanone G] registered a cell count (compound dose 1 µM) of 1.15 ± 0.2 and a cell count (compound dose 5 µM) of 1.09 ± 0.26.

Regarding `Nc1cccc2c1C(=O)N(C1CCC(=O)NC1=O)C2=O` (centres undefined) [Pomalidomide], the cell count worked out at 0.992 ± 0.23 (compound dose 1 µM) and 0.981 ± 0.094 (compound dose 5 µM).

`COc1ccc(S(=O)(=O)Nc2cc(-c3c(O)ccc4ccccc34)c(O)c3ccccc23)cc1` returned a cell count (compound dose 1 µM) of 1.03 ± 0.083 and a cell count (compound dose 5 µM) of 1.05 ± 0.1.

`Cl.Cl.N=C(N)c1ccc2nc(-c3ccc(-c4nc5ccc(C(=N)N)cc5[nH]4)[se]3)[nH]c2c1` [DB1976 (dihydrochloride)]: the cell count reads like this: (compound dose 1 µM) 0.959 ± 0.19; (compound dose 5 µM) 0.986 ± 0.023.

`O=C1Nc2ccccc2/C1=C1/Nc2ccccc2C1=O` [Indirubin] displayed a cell count (compound dose 1 µM) of 1.14 ± 0.11 and a cell count (compound dose 5 µM) of 1.14 ± 0.025.

Regarding `COc1cc(C(=O)O)ccc1NC(=O)[C@@H]1N[C@@H](CC(C)(C)C)[C@](C#N)(c2ccc(Cl)cc2F)[C@H]1c1cccc(Cl)c1F` [Idasanutlin], the cell count came to 1.09 ± 0.12 (compound dose 1 µM) and 1.12 ± 0.16 (compound dose 5 µM).

Take `CC1(C)CCC(C)(C)c2cc(NC(=O)c3ccc(C(=O)O)cc3)ccc21` [Tamibarotene]: the cell count (compound dose 1 µM) is 1.01 ± 0.22 and the cell count (compound dose 5 µM) is 0.94 ± 0.048.

`Cc1cc(C)c(Nc2ccnc(Nc3ccc(C#N)cc3)n2)c(C)c1` [Dapivirine]: the cell count runs as follows: (compound dose 1 µM) 1.11 ± 0.023; (compound dose 5 µM) 1.07 ± 0.22.

Regarding `C[n+]1cc2c3c(ccc2c2ccc4cc5c(cc4c21)OCO5)OCO3`, the cell count by setting is: (compound dose 1 µM) 0.921 ± 0.13; (compound dose 5 µM) 0.0025 ± 0.0035.

In the case of `Nc1ncnc2c1ncn2[C@@H]1O[C@H](CO)[C@@H](O)[C@H]1O` [Adenosine], the cell count was 1.13 ± 0.2 (compound dose 1 µM) and 1.11 ± 0.11 (compound dose 5 µM).

As for `CC(=O)O[C@@]12CO[C@@H]1C[C@H](O)[C@@]1(C)C(=O)[C@H](O)C3=C(C)[C@@H](OC(=O)[C@H](O)[C@@H](NC(=O)OC(C)(C)C)c4ccccc4)C[C@@](O)([C@@H](OC(=O)c4ccccc4)[C@H]21)C3(C)C` [Docetaxel], the cell count reads like this: (compound dose 1 µM) 1.2 ± 0.22; (compound dose 5 µM) 1.17 ± 0.061.

For the molecule `O=C(/C=C/c1ccccc1)NC(NC(=S)Nc1cccc2cccnc12)C(Cl)(Cl)Cl` (centres undefined) [Salubrinal], the cell count (compound dose 1 µM) is 1.13 ± 0.083 and the cell count (compound dose 5 µM) was found to be 1.12 ± 0.14.

Consider `CO[C@H]1C[C@@H]2CC[C@@H](C)[C@@](O)(O2)C(=O)C(=O)N2CCCC[C@H]2C(=O)O[C@H]([C@H](C)C[C@@H]2CC[C@@H](OCCO)[C@H](OC)C2)CC(=O)[C@H](C)/C=C(\C)[C@@H](O)[C@@H](OC)C(=O)[C@H](C)C[C@H](C)/C=C/C=C/C=C/1C` [Everolimus], for which the cell count reads like this: (compound dose 1 µM) 1.06 ± 0.33; (compound dose 5 µM) 1.03 ± 0.32.

Turning to `Nc1ccn([C@@H]2O[C@H](CO)[C@@H](O)C2(F)F)c(=O)n1` [Gemcitabine HCl], the cell count reads like this: (compound dose 1 µM) 1.17 ± 0.23; (compound dose 5 µM) 1.18.

Turning to `Nc1ccn([C@@H]2O[C@H](CO)[C@@H](O)C2(F)F)c(=O)n1` [Gemcitabine], the cell count runs as follows: (compound dose 1 µM) 0.943 ± 0.4; (compound dose 5 µM) 1.04 ± 0.31.

Take `NCCCCCCNS(=O)(=O)c1cccc2c(Cl)cccc12` [W-7 (hydrochloride)]: the cell count runs as follows: (compound dose 1 µM) 1.09 ± 0.31; (compound dose 5 µM) 1.19 ± 0.19.

Regarding `CC1(C)CC[C@]2(C(=O)n3ccnc3)CC[C@]3(C)[C@H](C(=O)C=C4[C@@]5(C)C=C(C#N)C(=O)C(C)(C)[C@@H]5CC[C@]43C)[C@@H]2C1`, the cell count was found to be 0.122 ± 0.035 (compound dose 1 µM) and 0.0235 ± 0.0021 (compound dose 5 µM).

With `C[C@H](NC(=O)/C(C#N)=C/c1cccc(Br)n1)c1ccccc1`, the cell count was 1.18 ± 0.16 (compound dose 1 µM) and 0.9 ± 0.15 (compound dose 5 µM).

Consider `O=c1[nH]c(=S)[nH]c(-c2ccccc2)c1Cc1c(O)ccc2ccccc12` [Cambinol], for which the cell count stood at 0.798 ± 0.28 (compound dose 1 µM) and 1.04 ± 0.052 (compound dose 5 µM).

As for `CCCC(=O)c1c(O)c(Cc2c(O)c(Cc3c(O)c(C)c(OC)c(C(=O)CCC)c3O)c(O)c(C(=O)[C@@H](C)CC)c2O)c(O)c(C)c1OC` [Agrimol B], the cell count was determined as 1.06 ± 0.27 (compound dose 1 µM) and 1.16 ± 0.25 (compound dose 5 µM).

Consider `Cn1nc(C(F)(F)F)cc1-c1ccc(OCc2ccc(Cl)cc2)c(-c2cc(C(F)(F)F)cc(C(F)(F)F)c2)c1O`, for which the cell count (compound dose 1 µM) is 1.16 ± 0.17 and the cell count (compound dose 5 µM) worked out at 1.1 ± 0.18.

For `CN1CCC(c2c(O)cc(O)c3c(=O)cc(-c4ccccc4Cl)oc23)C1CO` (centres undefined) [Riviciclib hydrochloride], the cell count (compound dose 1 µM) came to 0.892 ± 0.11 and the cell count (compound dose 5 µM) was determined as 0.915 ± 0.21.

Turning to `CN[C@@H](C)C(=O)N[C@H](C(=O)N1CCC[C@H]1C(=O)N[C@H]1c2ccccc2C[C@H]1OCC#CC#CCO[C@@H]1Cc2ccccc2[C@@H]1NC(=O)[C@@H]1CCCN1C(=O)[C@@H](NC(=O)[C@H](C)NC)C1CCCCC1)C1CCCCC1`, the cell count is, setting by setting: (compound dose 1 µM) 0.334 ± 0.14; (compound dose 5 µM) 0.3 ± 0.0092.

In the case of `CC(C)=CC[C@@H](O)C1=CC(=O)c2c(O)ccc(O)c2C1=O` [Shikonin], the cell count reads like this: (compound dose 1 µM) 0.949 ± 0.18; (compound dose 5 µM) 1.04 ± 0.17.

For the molecule `COc1ccc2ccc(=O)oc2c1CC=C(C)C` [Osthole], the cell count by setting is: (compound dose 1 µM) 1 ± 0.086; (compound dose 5 µM) 0.942 ± 0.063.

`CC(=O)Oc1ccccc1C(=O)O` had a cell count (compound dose 1 µM) of 1.24 ± 0.2 and a cell count (compound dose 5 µM) of 1.38 ± 0.21.

In the case of `O=c1oc2cc(O)ccc2c2ccc(O)cc12` [Urolithin A], the cell count is, setting by setting: (compound dose 1 µM) 1.06 ± 0.098; (compound dose 5 µM) 1.13 ± 0.17.

For the molecule `C=C1C[C@@]2(O)O[C@@]3(C[C@H]2C(C)C)[C@@H](C)CC[C@@H]13` [Curcumol], the cell count is, setting by setting: (compound dose 1 µM) 1.04 ± 0.27; (compound dose 5 µM) 1.09 ± 0.047.

Turning to `N[C@H](Cc1c[nH]c2ccccc12)C(=O)N/N=C/c1ccc2nccnc2c1` [Rhosin (hydrochloride)], the cell count came to 1.04 ± 0.067 (compound dose 1 µM) and 1.14 ± 0.026 (compound dose 5 µM).

With `NS(=O)(=O)OC[C@H]1C[C@@H](Nc2ccnc3cc(-c4cccc(SC(F)(F)F)c4)nn23)[C@H](O)[C@@H]1O`, the cell count came out at 0.049 ± 0.016 (compound dose 1 µM) and 0.016 ± 0.0014 (compound dose 5 µM).

`CC(C)c1cc(-c2n[nH]c(=O)n2-c2ccc3c(ccn3C)c2)c(O)cc1O` [Ganetespib] came in with a cell count (compound dose 1 µM) of 1.03 ± 0.17 and a cell count (compound dose 5 µM) of 0.995 ± 0.15.
